# Data taken from the supplement of paper PMC8728848.
# Some of the results follow.
# B1: CC1G-11630 (Coprinopsis cinerea), A8P462 (protein)
# chain: MTTEAKIKLKAVVYWELVFDYDNSSNTGEITQSYTVKISQTSTRSTFASEVSTTTIDTLTKNNQEVDVGASYGAISANVSASWEHSEEVNNMLEKTTQTSTEDTYTVETEETRSYTIGPGGMLSLFQKHFSGPGMHVAFDVFTTDLELAKERTEIDIDVDVEAIRFVREIRVVYTDIMSEAPGDHVREINGKNPDINYGFNGKFVWLVPEQTRKTAQALTNVEFVSQAESDDRYWDLAAGAGGSNRYLIPVYDTNNKDKIYELALWRSDSYITHDKVKAAGWSGTTGDINSGRGGTYLNLVWKTRHAY
# How the values were obtained:
# Test in all cases: glycan array binding signal (z-score within array); higher = stronger binding
# Details in all cases: glycan notation: IUPAC condensed, linker removed
# [1] = target: Gal(b1-4)GlcNAc(b1-3)Gal(b1-4)GlcNAc(b1-3)[Gal(b1-4)GlcNAc(b1-3)Gal(b1-4)GlcNAc(b1-6)]GalNAc
# In short: (§1)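 Negative Z-scores can be read as non-binding. The Z-score is calculated within each array and then averaged across arrays of one protein sequence at different concentrations or buffers and across linkers. Arrays, 3228 in all, were curated from the Consortium for Functional Glycomics database and kept only where the protein sequence was available.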
# [2] = target: Gal(b1-4)GlcNAc(b1-3)Gal(b1-4)GlcNAc(b1-6)[Gal(b1-3)]GalNAc
# In short: as §1
# [3] = target: Gal(b1-4)GlcNAc(b1-3)Gal(b1-4)[Fuc(a1-3)]GlcNAc(b1-3)Gal(b1-4)[Fuc(a1-3)]GlcNAc
# In short: as §1
# [4] = target: Gal(b1-4)GlcNAc(b1-3)GalNAc
# In short: as §1
# [5] = target: Gal(b1-4)GlcNAc(b1-3)[Fuc(a1-3)GlcNAc(b1-6)]Gal(b1-4)Glc
# In short: as §1
# [6] = target: Gal(b1-4)GlcNAc(b1-3)[Gal(b1-4)GlcNAc(b1-6)]Gal(b1-4)GlcNAc
# In short: as §1
# [7] = target: Gal(b1-4)GlcNAc(b1-3)[GlcNAc(b1-6)]Gal(b1-4)GlcNAc
# In short: as §1
# [8] = target: Gal(b1-4)GlcNAc(b1-6)Gal(b1-4)GlcNAc
# In short: as §1
# [9] = target: Gal(b1-4)GlcNAc(b1-6)GalNAc
# In short: as §1
# [10] = target: Gal(b1-4)GlcNAc(b1-6)[Gal(b1-3)]GalNAc
# In short: as §1
# [11] = target: Gal(b1-4)GlcNAc(b1-6)[Gal(b1-4)GlcNAc(b1-3)]GalNAc
# In short: as §1
# [12] = target: Gal(b1-4)GlcNAc6P
# In short: as §1
# [13] = target: Gal(b1-6)Gal
# In short: as §1
# [14] = target: Gal3S(b1-3)GalNAc
# In short: as §1
# [15] = target: Gal3S(b1-3)GlcNAc
# In short: as §1
# [16] = target: Gal3S(b1-3)[Fuc(a1-4)]GlcNAc
# In short: as §1
# [17] = target: Gal3S(b1-4)Glc
# In short: as §1
# [18] = target: Gal3S(b1-4)Glc6S
# In short: as §1
# [19] = target: Gal3S(b1-4)GlcNAc
# In short: as §1
# [20] = target: Gal3S(b1-4)[Fuc(a1-3)]Glc6S
# In short: as §1
# [21] = target: Gal3S(b1-4)[Fuc(a1-3)]GlcNAc
# In short: as §1
# [22] = target: Gal3S(b1-4)[Fuc(a1-3)]GlcNAc6S
# In short: as §1
# [23] = target: Gal3S4S(b1-4)GlcNAc
# In short: as §1
# [24] = target: Gal3S6S(b1-4)GlcNAc
# In short: as §1
# [25] = target: Gal3S6S(b1-4)GlcNAc6S
# In short: as §1
# [26] = target: Gal4S(b1-4)GlcNAc
# In short: as §1
# [27] = target: Gal4S6S(b1-4)GlcNAc
# In short: as §1
# [28] = target: Gal6P(b1-4)GlcNAc
# In short: as §1
# [29] = target: Gal6S(b1-3)GlcNAc
# In short: as §1
# [30] = target: Gal6S(b1-3)GlcNAc6S
# In short: as §1
# [31] = target: Gal6S(b1-4)Glc
# In short: as §1
# [32] = target: Gal6S(b1-4)Glc6S
# In short: as §1
# [33] = target: Gal6S(b1-4)GlcNAc
# In short: as §1
# [34] = target: Gal6S(b1-4)GlcNAc6S
# In short: as §1
# [35] = target: GalNAc(a1-3)Gal
# In short: as §1
# [36] = target: GalNAc(a1-3)GalNAc
# In short: as §1
# [37] = target: GalNAc(a1-3)GalNAc(b1-3)Gal(a1-4)Gal(b1-4)Glc
# In short: as §1
binder,measurement,setting,value
B1,glycan array binding signal (z-score),[1],0.111
same,glycan array binding signal (z-score),[2],-0.07
same,glycan array binding signal (z-score),[3],-0.162
same,glycan array binding signal (z-score),[4],-0.41
same,glycan array binding signal (z-score),[5],-0.538
same,glycan array binding signal (z-score),[6],-0.647
same,glycan array binding signal (z-score),[7],-0.851
same,glycan array binding signal (z-score),[8],-0.475
same,glycan array binding signal (z-score),[9],0.779
same,glycan array binding signal (z-score),[10],-0.292
same,glycan array binding signal (z-score),[11],-0.119
same,glycan array binding signal (z-score),[12],0.67
same,glycan array binding signal (z-score),[13],0.71
same,glycan array binding signal (z-score),[14],0.063
same,glycan array binding signal (z-score),[15],0.098
same,glycan array binding signal (z-score),[16],-0.088
same,glycan array binding signal (z-score),[17],0.184
same,glycan array binding signal (z-score),[18],1.67
same,glycan array binding signal (z-score),[19],0.478
same,glycan array binding signal (z-score),[20],0.565
same,glycan array binding signal (z-score),[21],-0.203
same,glycan array binding signal (z-score),[22],1.25
same,glycan array binding signal (z-score),[23],3.27
same,glycan array binding signal (z-score),[24],1.38
same,glycan array binding signal (z-score),[25],2.52
same,glycan array binding signal (z-score),[26],-0.377
same,glycan array binding signal (z-score),[27],0.249
same,glycan array binding signal (z-score),[28],-0.491
same,glycan array binding signal (z-score),[29],-0.544
same,glycan array binding signal (z-score),[30],0.275
same,glycan array binding signal (z-score),[31],0.479
same,glycan array binding signal (z-score),[32],1.97
same,glycan array binding signal (z-score),[33],0.016
same,glycan array binding signal (z-score),[34],1.12
same,glycan array binding signal (z-score),[35],-0.341
same,glycan array binding signal (z-score),[36],-0.248
same,glycan array binding signal (z-score),[37],-0.544
